# T1: MYC-tagged Cdc53 (Saccharomyces cerevisiae, UniProt Q12018 1-815)
# T1 construct: Expressed from the wild type promoter on a CEN plasmid in yeast and immunoprecipitated with 9E10 anti-MYC; also called Cdc53^M; Cdc53^MYC6
# T1 sequence: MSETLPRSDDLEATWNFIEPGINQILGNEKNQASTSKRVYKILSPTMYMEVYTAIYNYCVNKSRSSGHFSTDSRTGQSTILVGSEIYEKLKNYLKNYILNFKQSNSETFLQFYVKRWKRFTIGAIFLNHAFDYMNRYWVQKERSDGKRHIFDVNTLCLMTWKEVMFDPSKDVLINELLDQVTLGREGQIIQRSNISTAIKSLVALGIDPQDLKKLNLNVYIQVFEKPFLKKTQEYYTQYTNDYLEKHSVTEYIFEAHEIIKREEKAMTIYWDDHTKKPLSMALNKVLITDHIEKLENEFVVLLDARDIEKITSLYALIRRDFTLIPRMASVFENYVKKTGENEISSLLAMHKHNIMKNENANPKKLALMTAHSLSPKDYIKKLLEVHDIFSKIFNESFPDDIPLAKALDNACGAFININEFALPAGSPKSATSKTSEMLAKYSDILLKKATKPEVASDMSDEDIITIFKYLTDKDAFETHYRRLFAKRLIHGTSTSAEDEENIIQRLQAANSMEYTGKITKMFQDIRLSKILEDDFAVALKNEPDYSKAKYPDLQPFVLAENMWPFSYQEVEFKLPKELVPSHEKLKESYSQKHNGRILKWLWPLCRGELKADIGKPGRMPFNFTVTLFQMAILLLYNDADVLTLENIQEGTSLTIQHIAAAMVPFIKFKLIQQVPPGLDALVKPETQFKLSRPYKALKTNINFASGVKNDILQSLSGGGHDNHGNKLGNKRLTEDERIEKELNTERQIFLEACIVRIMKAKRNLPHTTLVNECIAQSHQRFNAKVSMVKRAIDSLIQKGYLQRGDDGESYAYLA
# T2: Cdc53-Y48W, M49E^MYC6 (Saccharomyces cerevisiae, UniProt Q12018 1-815)
# T2 construct: also called mutant Cdc53; pMT1939-1943
# T2 sequence: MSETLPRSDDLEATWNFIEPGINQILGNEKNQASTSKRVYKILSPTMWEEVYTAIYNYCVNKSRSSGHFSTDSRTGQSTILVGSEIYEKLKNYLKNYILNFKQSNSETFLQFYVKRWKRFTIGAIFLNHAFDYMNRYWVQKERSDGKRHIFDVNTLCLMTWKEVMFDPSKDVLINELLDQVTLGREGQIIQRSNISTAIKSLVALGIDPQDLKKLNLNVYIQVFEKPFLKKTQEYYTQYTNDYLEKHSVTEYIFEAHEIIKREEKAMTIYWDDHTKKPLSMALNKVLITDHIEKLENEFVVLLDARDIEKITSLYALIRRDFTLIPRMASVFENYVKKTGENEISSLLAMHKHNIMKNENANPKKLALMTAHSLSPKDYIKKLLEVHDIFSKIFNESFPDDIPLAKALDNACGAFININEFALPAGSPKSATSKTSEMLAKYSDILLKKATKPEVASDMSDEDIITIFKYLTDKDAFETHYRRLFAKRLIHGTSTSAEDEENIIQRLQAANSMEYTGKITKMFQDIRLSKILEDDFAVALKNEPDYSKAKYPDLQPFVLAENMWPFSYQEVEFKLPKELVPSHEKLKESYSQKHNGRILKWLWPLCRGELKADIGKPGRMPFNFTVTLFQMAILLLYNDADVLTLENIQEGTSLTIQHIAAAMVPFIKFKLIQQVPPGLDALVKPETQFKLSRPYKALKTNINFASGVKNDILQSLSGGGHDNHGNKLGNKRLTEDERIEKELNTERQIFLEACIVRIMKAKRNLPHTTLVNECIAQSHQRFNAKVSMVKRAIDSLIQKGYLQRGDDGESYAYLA
# What was measured:
# MYC-tagged Cdc53 = biological target: T1, MYC-tagged Cdc53; assay: anti-MYC immunoprecipitation from yeast lysate, immunoblot with anti-Skp1
# Cdc53-Y48W, M49E^MYC6 = biological target: T2, Cdc53-Y48W, M49E^MYC6; assay: anti-MYC immunoprecipitation from yeast lysate, western blot
# Skp1, sequence (chain): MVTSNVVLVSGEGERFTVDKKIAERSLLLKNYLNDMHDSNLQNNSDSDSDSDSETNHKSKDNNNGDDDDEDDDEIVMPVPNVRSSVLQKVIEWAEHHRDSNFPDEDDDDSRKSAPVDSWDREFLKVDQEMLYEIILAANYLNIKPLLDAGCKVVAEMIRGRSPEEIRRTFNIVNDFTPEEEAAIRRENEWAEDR
binder,measurement,setting,value
"Skp1 (other, Endogenous protein in yeast lysates, detected with anti-Skp1 antibodies; also called endogenous Skp1) not shown",binding result,MYC-tagged Cdc53,binds
same,binding result,"Cdc53-Y48W, M49E^MYC6",no binding

# Reference: patent US6426205 (MOUNT SINAI HOSPITAL, dated 2002)
